# From PubChem BioAssay AID686978 (National Center for Advancing Translational Sciences (NCATS), 2013)
# The campaign covered roughly 420,000 compounds. About 64,000 (15%) were called active. The inconclusive results got no clear call from the source; some entries with a clear call stand among them for comparison. The call rests on the fitted dose curve; in most records, active means well fitted inhibition curve with a large enough effect; inconclusive means small, poorly fitted or top-dose-only effect; inactive means flat fitted curve, though single readings scatter. Potencies of inconclusive entries are left out as doubtful fits.
# Assay: qHTS for Inhibitors of human tyrosyl-DNA phosphodiesterase 1 (TDP1): qHTS in cells in absence of CPT; further: nearly all actives have a fitted effect of over 55% in size
# Conditions: DT40 Tdp1-/- hTDP1 cells, no CPT, ATP luminescence, 48 h; activity change, negative = growth inhibition: at 46.2 µM (top of the series) unless noted
# Summary of the method: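 Growth kinetics read by CellTiter-Glo luminescence after ≥48 hr at 37 °C. Cells: DT40 Tdp1-/- stably carrying human TDP1, 400 per well, compound exposure in the absence of CPT (DMSO vehicle).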
# On the % scale 0 is the no-effect control and ±100 the full control effect; potency means the concentration at half of the fitted maximal effect; tags describe the fitted curve by direction and shape.
Compound,Potency,"activity change, negative = growth inhibition"
CCN(c1ccccc1)S(=O)(=O)c1cc(C(=O)NCc2ccco2)ccc1C,"inconclusive [inhibitor, single point]",–
COc1ccc(-n2nnc3c(SCC(=O)OCc4ccccc4)ncnc32)cc1,"inconclusive [inhibitor, single point]",–
CCOc1ccc(N=C2NC(=O)S/C2=C\c2ccc(N(C)C)cc2)cc1,"inconclusive [inhibitor, partial curve]",–
COc1ccc2nc(NC(=O)CC3Oc4ccccc4NC3=O)sc2c1 (centres undefined),inactive,–
CCSc1nc(C)nc2sc(C)c(C)c12,inactive,–
COC(=O)c1cc(Cl)cc2c(C)c(C3(O)CCCCC3)[nH]c12,active: 20.6 µM,–
O=[N+]([O-])c1cc(-c2nnc(N3CCOCC3)c3ccccc23)ccc1N1CCOCC1,"inconclusive [inhibitor, partial curve, poor fit]",–
Cc1ccc(-n2c(N)c(C(=O)NCc3ccco3)sc2=S)cc1,inactive,–
CCc1[nH]c(=O)[nH]c1C(C)S(=O)(=O)c1ccc(C)cc1 (centres undefined),"inconclusive [inhibitor, single point]",–
COC(C[C@H]1O[C@@H]1[C@H](O)[C@H](C)OCc1ccccc1)OC,inactive,–
COc1ccc(Br)cc1CN(C)C(=O)Cc1ccc(OC)c(S(=O)(=O)N2CCOCC2)c1,inactive,–
CN(Cc1ccccc1)Cc1cc(=O)oc2ccccc12,"inconclusive [inhibitor, single point]",–
C/C(=C\c1ccco1)C1C(C#N)=C(N)OC2=C1C(=O)CC(C)(C)C2 (centres undefined),"inconclusive [inhibitor, single point]",–
C/C(CC(=O)Nc1ccc(C)cc1C)=N\NC(=O)C(C)C,inactive,–
Cc1nc2nc(Cc3ccccc3)[nH]n2c(=O)c1Cc1ccccc1,"inconclusive [inhibitor, partial curve, poor fit]",–
CC1(C)CC(=O)C(C(c2ccc(F)cc2)C2C(=O)CC(C)(C)CC2=O)C(=O)C1,inactive,–
NC(=O)c1ccc(NC(=O)COC(=O)c2ccc3c(c2)OCCO3)cc1,"inconclusive [inhibitor, single point]",–
CCN(CC)C(=O)c1sc(NC(=O)C(C)Sc2nc(-c3ccccc3)cc(C(F)(F)F)n2)c(C(=O)OC)c1C (centres undefined),active: 7.31 µM,–
CCc1ccc(-c2cc(C(=O)Nc3c(C)n(C)n(-c4ccccc4)c3=O)c3ccccc3n2)s1,active: 16.4 µM,–
O=C(CSc1nc(-c2ccccc2)cs1)Nc1nccs1,active: 16.4 µM,–
Cc1c(C(=O)NCCSCc2ccccc2)cccc1[N+](=O)[O-],inactive,–
O=C(N/N=C/c1ccccn1)c1ccc2nc[nH]c2c1,inactive,–
Cc1cccc(S(=O)(=O)NC(=O)C2(C)CCN2C(=O)C/C=C/c2ccccc2)c1 (centres undefined),inactive,–
CCc1ccc(NC(=O)c2cnn(-c3ccccc3)c2C2CCNCC2)cc1,inactive,–
CCC1Oc2ccccc2N(CC(=O)NC2CCCCC2)C1=O (centres undefined),"inconclusive [inhibitor, partial curve]",–

Compound,Potency,"activity change, negative = growth inhibition"
C=CCC1NS(=O)(=O)OCC1C(C)C (centres undefined),"inconclusive [inhibitor, single point]",–
COc1ccc(CCNC(=O)COC(=O)C23CC4CC(CC(Br)(C4)C2)C3)cc1,–,inconclusive: -31% [inhibitor]
CCC1NC(=O)c2cc3ccccc3cc2-n2c1nc1cc(C)cc(C)c1c2=O (centres undefined),active: 4.11 µM,–
COc1ccccc1Cn1ccn(Cc2c(F)cccc2Cl)c(=O)c1=O,"inconclusive [inhibitor, single point]",–
CCCCn1cnc2c(SCc3ccc(Br)cc3)nc(N)nc21,"inconclusive [inhibitor, single point]",–
CN(C)c1oc(/C=C/c2ccc(F)cc2)nc1C#N,inactive,–
COc1ccc2c(c1)c1c(n2C)[C@@H]2CC=C(CO)[C@@H](C1)N2C,inactive,–
COc1ccc(OC)c(NC(=O)Nc2nc(C(N)CCc3ccccc3)cs2)c1 (centres undefined),active: 9.2 µM,–
O=c1[nH]c2ccc(Cl)cc2c(-c2ccccc2)c1CN1CCOCC1,active: 20.6 µM,–
COc1cc(C(=O)NCCSc2ccc(Br)cc2)cc(OC)c1OC,"inconclusive [inhibitor, single point]",–
COCCCN(C(=O)CSc1nc2ccccc2c(=O)n1C)c1c(N)n(Cc2ccccc2)c(=O)[nH]c1=O,"inconclusive [inhibitor, partial curve]",–
C=CCNC1=C(Cl)C(=O)N(Cc2ccccc2)C1=O,inactive,–
O=C(Nc1ccc(N2CCCC2)cc1)c1ccc(Br)o1,"inconclusive [inhibitor, single point]",–
Cc1ccc(-n2c(C)nnc2SC(C)C(=O)N2CCCC2)cc1 (centres undefined),inactive,–
COc1cccc(/C=C/C(=O)Nc2ccc3c(c2)OCCO3)c1OC,"inconclusive [inhibitor, single point]",–
Cc1cccc2c1cnn2C(=O)CCC(=O)NCC(C)c1ccccc1 (centres undefined),inactive,–
CC(=O)NC1C(OC2OC(CC(O)C3OC([N+]4=CCC(=O)NC4=O)C(O)C3O)C(O)C(O)C2NC(=O)/C=C/CCCCCCCCC(C)C)OC(CO)C(O)C1O (centres undefined),active: 0.0904 µM,–
Cc1ccc(C(=O)N2CCN(c3ccc(C(F)(F)F)cn3)CC2)c(C)c1,active: 20.6 µM,–
Cc1cccc(-c2c3c(=O)n(C)c(=O)n(C)c3cn2-c2cc(N)c(Cl)cc2Cl)c1,active: 3.66 µM,–
Cc1c(NC(=O)CSc2nnc(C(C)Oc3ccc(Cl)cc3)n2-c2ccccc2)c(=O)n(-c2ccccc2)n1C (centres undefined),"inconclusive [inhibitor, single point]",–
Nc1ccc2nc(N3CCOCC3)sc2c1,inactive,–
C/C(=N/NC(=O)c1ccc(-c2ccccc2)cc1)c1cc(O)cc(O)c1,active: 16.4 µM,–
Cc1ccc(NC(=O)c2cc(-c3ccc(C)o3)nc3ccccc23)cc1,"inconclusive [inhibitor, single point]",–
O=C(/C=C/c1ccccc1)Nc1ccc(C(=O)N2CCCCC2)cc1,"inconclusive [inhibitor, single point]",–
